This is an account of results in PubChem BioAssay AID1346428 (National Center for Advancing Translational Sciences (NCATS), 2018).

SMILES strings stand for the structures. In all, about 48,000 compounds went through this assay and about 1,200 (2.5%) were called active. Not shown: some 2% with an inconclusive outcome.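 Rule for the calls: active = activation of at least 60% and not above a set upper limit (about 1 call in 100 departs from these limits); inconclusive = activation of 40% to 60%, or above that upper limit; inactive = activation under 40%.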 The list shows a part of the results.

In this assay the target is Probable G-protein coupled receptor 32 (Homo sapiens) (UniProt O75388). As to the kind of experiment: qHTS for Agonists of Human Resolvin D1 Receptor DRV1. Note: 0% is about no effect. The note with it: CHO-K1 GPR32 beta-arrestin PathHunter luminescence, 90 min; at 76.9 µM; stronger effect = higher value; zero percent set by DMSO-only wells. An outline of the steps: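 Agonism was scored as beta-arrestin recruitment to ProLink-fused GPR32 in stably transfected CHO-K1 cells, giving a chemiluminescent beta-Gal signal; compounds were incubated 90 min at 37 °C.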
UniProt O75388, sequence (O75388 whole entry, looked up, the tested form may be a part): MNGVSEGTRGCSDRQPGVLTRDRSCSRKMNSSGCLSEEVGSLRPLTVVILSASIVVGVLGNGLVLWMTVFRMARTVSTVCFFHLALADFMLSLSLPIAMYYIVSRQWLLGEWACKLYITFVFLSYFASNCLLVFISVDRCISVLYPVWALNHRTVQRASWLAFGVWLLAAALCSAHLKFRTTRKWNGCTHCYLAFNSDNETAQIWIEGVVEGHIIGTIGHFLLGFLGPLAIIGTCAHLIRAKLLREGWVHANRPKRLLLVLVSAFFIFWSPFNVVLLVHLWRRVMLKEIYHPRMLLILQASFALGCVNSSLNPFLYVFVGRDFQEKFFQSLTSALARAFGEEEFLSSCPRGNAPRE
Regarding `N#Cc1c(-n2ncnc2-c2ccc(F)cc2)sc2c1CCCCC2`, the activation is active: 69%.
For the compound `O=C(C1CCN(S(=O)(=O)c2ccc(Br)s2)CC1)N1CCN(c2cccc(C(F)(F)F)c2)CC1`, the activation is inactive: -11.9%.
Regarding `CCCSc1ncc(Cl)c(C(=O)Nc2sc3c(c2C(=O)OC)CCCC3)n1`, the activation was inactive: -2.04%.
With `O=C(CSCc1cnn(-c2ccccc2)c1-n1cccc1)NCc1cccc(Cl)c1`, the activation was inactive: -19%.
The value for `COc1cc(NC(=O)Cn2c(=O)ccc3cc(S(=O)(=O)N4CCCC4)ccc32)cc(OC)c1` was inactive: 9.73%; that for `CCC(C)NC(=O)CCC(=O)N1Cc2ccccc2Oc2ncccc21` (configuration not stated) was inactive: -4.98%; that for `CC1=C(C(=O)N2CCN(c3ccccc3)CC2)C2(CCCCC2)OC1=O` was inactive: -22%.
On to `Cc1ccc(S(=O)(=O)Nc2ccc3nc(-c4ccc(F)cc4)oc3c2)cc1`, for which the activation is active: 66.5%.
`CC(C)(C)NC(=O)c1oc2ccccc2c1NC(=O)c1ccccc1F`: the activation was inactive: -23.3%.
Consider `CCOC(=O)c1c(C)[nH]c(C)c1S(=O)(=O)N(C)CC(=O)Nc1ccc(CC)cc1`, for which the activation was inactive: -8.22%.
The value for `COc1ccc(/C=C\c2onc(C)c2S(=O)(=O)N2CCC(C(=O)Nc3cccc(OC)c3)CC2)cc1` was inactive: -25.4%; that for `COc1ccc(CNC(=O)c2cc3ccccn3n2)cc1OC` was inactive: -7.75%; that for `Cc1ccc(-n2nc(C)c(C(=O)O)c2-n2cccc2)cc1` was inactive: -11.7%.
In the case of `Cc1ccc(CNC(=O)c2c(C)oc3ncnc(N4CCOCC4)c23)cc1`, the activation was inactive: -9.33%.
As for `CCc1ccc(-n2c(=O)c3c4c(sc3n(CC(=O)c3ccc(Br)cc3)c2=O)CCC4)cc1`, the activation is inactive: -0.456%.
The value for `O=C(NCc1ccccc1)c1cc2ccc3cccnc3c2[nH]1` was inactive: 11.1%; that for `CCCNC(=O)CN1C(=O)CSc2ccc(S(=O)(=O)N3CCC(C)CC3)cc21` was inactive: 5.75%.
For `Cc1ccc(Nc2c(C(C)C)c(C)c(C#N)c3nc4ccccc4n23)cc1` the value was inactive: 12.6%; for `CCC(C)NC(=O)CCCc1nnc2n(CC(C)C)c(=O)c3sccc3n12` (configuration not stated), inactive: 4.48%.
In the case of `CCN(CC)C(=O)C1CCN(S(=O)(=O)c2c(C)noc2/C=C/c2cccc(OC)c2)CC1`, the activation is inactive: -18.3%.
As to `COc1ccc2c(c1)CCc1c(C(=O)Nc3c(C)nn(Cc4ccccc4)c3C)noc1-2`, the activation is inactive: 9.8%.
As for `Cc1ccccc1-c1noc(-c2ccc(NCc3ccco3)c([N+](=O)[O-])c2)n1`, the activation was inactive: -0.619%.
Turning to `CCOc1ccc(NC(=O)c2cc(S(=O)(=O)NC3CCCCCC3)ccc2F)cc1`, the activation is inactive: -22.8%.
For `CCOc1ccc(-n2c(=O)c3c(C)c(C)sc3n(CC(=O)NCCc3ccccc3)c2=O)cc1` the value was inactive: -9.53%.
With `COc1ccc2c(Sc3ccc(C)cc3)c(C(=O)NC(C)C)[nH]c2c1`, the activation is inactive: -7.07%.
On to `CCOc1ccccc1NC(=O)CSc1nccn1-c1cccc(C)c1`, for which the activation was inactive: 19.2%.
With `Cc1ccc(NC(=O)/C=C\C(=O)N(c2ccc(C(C)C)cc2)C(C(=O)NCc2ccco2)c2ccc(F)cc2)cc1` (configuration not stated), the activation is inactive: -20.5%.
Consider `COCCCNC(=O)c1nn(-c2ccc(C)cc2)nc1CO`, for which the activation was inactive: -4.3%.
Consider `CCOc1ccc(C2CC(=O)c3c([nH]c(C(=O)OCC4CCCCC4)c3C)C2)cc1` (configuration not stated), for which the activation is inactive: -6.37%.
`O=c1oc2ccccc2c(N2CCN(c3ccccc3F)CC2)c1CN1CCCC1`: the activation is inactive: -3.62%.
Take `Cc1ccc(S(=O)(=O)C(CNC(=O)C(=O)NCCc2ccccc2)c2cccs2)cc1` (configuration not stated): the activation is inactive: 7.36%.
For the compound `CCCc1cc(=O)oc2cc(C)c3c(-c4ccccc4)coc3c12`, the activation was inactive: -9.42%.
With `Cc1cccc(CNC(=O)Cn2ccc3cc(S(=O)(=O)N4CCCCCC4)ccc32)c1`, the activation was inactive: 32.8%.
For `COc1cccc(NC(=O)C(Cc2ccccc2)NS(=O)(=O)c2ccc3c(c2)c(=O)n(C)c(=O)n3C)c1` (configuration not stated) the value was inactive: -3.25%; for `Cc1ccc(NC(=O)CC2Nc3ccccc3NC2=O)cc1C` (configuration not stated), inactive: 19.2%.
For the compound `O=C(CN1C(=O)CSc2ccc(S(=O)(=O)N3CCCC3)cc21)Nc1cccc(Cl)c1`, the activation is inactive: -19.3%.
`Cc1ccc(OCC(=O)Nc2nnc(S(=O)(=O)N3CCCCCC3)s2)cc1`: the activation is inactive: 9.67%.
As to `O=C(NCc1ccc(F)cc1)C1(c2cccs2)CCOCC1`, the activation was inactive: -5.47%.
With `COc1cc(Nc2nc3c(S(=O)(=O)c4ccc(C)c(C)c4)nnn3c3ccsc23)cc(OC)c1`, the activation was inactive: -5.35%.
With `CCOC(=O)c1c(NC(=O)C2c3ccccc3Oc3ccccc32)sc(C)c1CC`, the activation is inactive: -12.2%.
The value for `Oc1ccc(NCc2ccccc2OCc2ccc(Cl)cc2)cc1` was inactive: 0.322%.
For `CCn1c(=O)cc(OCC(=O)N(C)c2cc(Cl)ccc2C)c2ccccc21`, the activation is inactive: 39.5%.
Turning to `COC(=O)c1ccccc1NC(=O)N1CCC(N2CCN(Cc3ccc(F)cc3)C(=O)C2=O)CC1`, the activation was inactive: -19.6%.
`CC(C)(C)C1CCc2nc(NC(=O)Cc3ccccc3)sc2C1` (configuration not stated): the activation was inactive: -25.2%.
Take `COc1ccccc1N1C(=O)N(CC(=O)C(C)(C)C)c2ccccc2S1(=O)=O`: the activation was inactive: -0.3%.
Take `CSc1ccc(-c2nc3cccc(C)n3c2Nc2ccc(Cl)cc2)cc1`: the activation is inactive: -2.26%.
Take `CN(C)CCNC(=O)c1ccc(-c2nn(C)c(=O)c3ccccc23)cc1`: the activation is inactive: -6.67%.
For `O=C1CN(C(=O)COc2ccc(Cl)cc2Cl)C(c2ccccc2)c2cc(F)ccc2N1` (configuration not stated) the value was inactive: -14.6%.
In the case of `CCCCC(CC)COC(=O)c1ccc(N(C)C)cc1` (configuration not stated), the activation is inactive: -42.8%.
With `COc1cc(O)c(C(=O)c2ccccc2)cc1S(=O)(=O)O`, the activation is inactive: -61.8%.
As to `O=C(O)Cc1ccccc1Oc1ccc(Cl)cc1Cl`, the activation was inactive: -0.299%.
The value for `COc1cc(OC)cc(OC)c1` was inactive: 4.42%.
With `CCOc1ccc(CCNC(=O)c2nn(C)c3c2CSc2ccccc2-3)cc1`, the activation is inactive: -11.7%.
The value for `CC(C)c1ccc(S(=O)(=O)c2cnc(SCC(=O)Nc3ccc4c(c3)OCCO4)[nH]c2=O)cc1` was inactive: 13.9%; that for `Cc1ccc(Cn2cnc3nc4c(cc3c2=O)CC(C)CC4)cc1` (configuration not stated) was inactive: -10.9%; that for `CCOc1ccccc1CNC(=O)CCCn1ccc2cc(S(=O)(=O)N3CCCC3)ccc21` was inactive: -2.67%.
As to `Cc1cccc(C(=O)NNc2ncnc3c2cnn3-c2ccc(C)cc2C)c1`, the activation is active: 113%.
Regarding `O=C(O)c1ccc(NC(=O)c2cc(S(=O)(=O)N3CCCCC3)c(Cl)cc2Cl)cc1`, the activation was inactive: -5.17%.
For `O=C(CN1N=C(c2ccc(Cl)cc2)CCC1=O)NCCc1ccccc1` the value was inactive: -19.6%; for `C=C1C[C@@]23CC[C@H]4[C@@](C)(CCC[C@@]4(C)C(=O)O)[C@@H]2CC[C@]1(O)C3`, inactive: -4.26%.
Turning to `CC(C)(Oc1ccc(Br)cc1)C(=O)Nc1cc(-c2nc3ccccc3[nH]2)ccc1Cl`, the activation was inactive: 18.4%.
Consider `CCc1c(C)nc2nncn2c1NCc1ccc(Cl)cc1`, for which the activation was active: 65.7%.
`CNCc1ccccc1`: the activation is inactive: -2.18%.
For the compound `Cc1ccc(NC(=O)Cn2nc(Cc3ccncc3)c3ccccc3c2=O)c(Cl)c1`, the activation was inactive: -17.6%.
For `CCOc1ccc(NC(=O)c2oc3ccccc3c2NC(=O)c2ccc(OC)cc2OC)cc1` the value was inactive: -1.08%; for `COc1ccccc1CNC(=O)CN1N=C(c2ccccc2)CCC1=O`, inactive: -20.3%.
For `COc1cc(CNCCSc2nnnn2C)cc(Cl)c1OCc1ccccc1` the value was active: 89%; for `COc1ccc(CNC(=O)CS(=O)Cc2nc(-c3cccc(C)c3)oc2C)cc1` (configuration not stated), inactive: 4.05%; for `Fc1ccccc1N1CCN(c2nccn3nc(-c4ccc(Br)cc4)cc23)CC1`, inactive: 6.38%.
For `CCCCN(CC)CCNC(=O)c1cc2c(=O)n(CC)c3ccccc3c2s1` the value was inactive: 11.3%; for `CCCCNc1nc2ccccc2c2nc(-c3ccccc3)nn12`, inactive: 1.76%; for `Cc1ccc(S(=O)(=O)NCC2CCC(C(=O)NCCCOC(C)C)CC2)cc1` (configuration not stated), inactive: -1.22%.
Turning to `Cc1nc(SCCOc2ccccc2F)[nH]c(=O)c1Cc1ccccc1`, the activation is inactive: -10.5%.
Regarding `Cc1ccccc1NC(=O)c1oc2c(c1C)-c1nn(Cc3cccc(Cl)c3)cc1CC2`, the activation was inactive: -6.39%.
Consider `COc1ccc(CCNC(=O)c2ccc(Cn3c(=O)c4ccccc4n(CC(=O)C(C)(C)C)c3=O)cc2)cc1OC`, for which the activation is inactive: -19.8%.
The value for `COc1cc(NC(=O)CCn2nc(C)c(S(=O)(=O)N3CCCCC3)c2C)cc(OC)c1OC` was inactive: -18.5%; that for `Cc1ccccc1C(=O)N(Cc1sccc1C)C1CCS(=O)(=O)C1` (configuration not stated) was inactive: -9.44%; that for `Cc1ccc(Cl)cc1NC(=O)CCCn1c(=O)c2cccn2c2cccnc21` was inactive: -10.3%.
Take `COc1ccccc1NC(=O)C1=C(C)Nc2c(C(=O)Nc3cccc(C)c3)cnn2C1c1ccccc1Cl` (configuration not stated): the activation is inactive: -16.9%.
Consider `CC1CCCCN1CCCNC(=O)CN1C(=O)c2cccnc2Oc2ccccc21` (configuration not stated), for which the activation is inactive: -6.18%.
In the case of `COc1ccc(Cl)cc1NC(=O)c1c(NCc2cccnc2)sc2c1CCC(C)C2` (configuration not stated), the activation is inactive: -7.15%.
The value for `CCN1CCN(C(c2ccc(SC)cc2)c2c(O)cc(C)n(CCOC)c2=O)CC1` (configuration not stated) was inactive: -9.4%; that for `CCCCN(CC)C(=O)C1CCCN(c2ncnc3onc(C)c23)C1` (configuration not stated) was inactive: 29.4%.
In the case of `COc1ccc(-c2nc3n(n2)C(c2ccc(OC)c(OC)c2)C(C(=O)Nc2cccnc2)=C(C)N3)cc1` (configuration not stated), the activation is inactive: -6.8%.
Regarding `COCCCNC(=O)c1ccc(Cn2c(=O)c3ccccc3n(Cc3c(C)cc(C)cc3C)c2=O)cc1`, the activation was inactive: 3.33%.
Turning to `CCOC(=O)c1ccc(CN(Cc2ccc(Br)cc2)S(=O)(=O)c2cccc(Cl)c2C)cc1`, the activation is inactive: -9.41%.
On to `CCOC(=O)c1c(C)[nH]c(C)c1S(=O)(=O)NCC(=O)NCc1cccc(C)c1`, for which the activation is inactive: -10.3%.
